Assay [1] concerns Mef2d microexon dual Nano/Firefly luciferase splicing reporter in Neuro-2a cells. Description: B-score of Firefly/Nano luminescence ratio, V1 Mef2d microexon reporter (B-score (plate-normalised)); higher = more Mef2d microexon inclusion. Conditions: 24 h.
Assay [2] shares this test system. In words: B-score of Nano/Firefly luminescence ratio, V2 Mef2d microexon reporter (B-score (plate-normalised)); higher = more Mef2d microexon inclusion. To be noted: 24 h.

Molecules are shown by their SMILES. Structures can show the parent of a compound that is named as a salt. This is one part of the list. Single values are uncertain, as repeats are few or missing.
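Throughout, for B-score of Nano/Firefly luminescence ratio, V2 Mef2d microexon reporter: compounds at 4 µM (PKI library 0.5 µM) on Dox-inducible N2A Flp-In cells with PEST-tagged luciferases, 384-well plates, B-score from per-plate median-polish residual over median absolute residual.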

As for `CCOc1ccn(-c2ccc(F)cc2)c(=O)c1C(=O)Nc1ccc(Oc2ccnc(N)c2Cl)c(F)c1` (0.5 µM), the B-score was found to be 9.96 in assay [1] and 2.6 in assay [2].

With `O=C1C(Cl)=C(Nc2ccccc2)C(=O)c2ccccc21` (4 µM), the B-score in assay [1] was 16.5; in assay [2] it was 0.089.

For `CC1=C(/C=C/C(C)=C/C=C/C(C)=C/C(=O)Nc2ccc(O)cc2)C(C)(C)CCC1` [Fenretinide] (4 µM), the B-score in assay [1] was determined as 9.29; in assay [2], 2.84.

On to `CCCCCCCC/C=C\CCCCCCCC(=O)NCCc1ccc(O)c(O)c1` [N-Oleoyldopamine] (4 µM), for which the results for the B-score in assay [1] and in assay [2] were 5.1 and 3.65, respectively.

`Cc1nc(-c2ccccn2)nc(NCc2ccccc2)c1Cl` (4 µM): the B-score in assay [1] came to 2.02; in assay [2], 2.03.

Take `CC1(COc2ccc3c(c2)ncn3-c2ccc3cccc(N4CCC(N)CC4)c3n2)COC1` (0.5 µM): the B-score in assay [1] was 14.3; in assay [2], 11.9.

Turning to `CN1c2cc3c(cc2N=C(c2ccc(C(=O)O)cc2)c2ccccc21)C(C)(C)CCC3(C)C` (4 µM), the B-score is 5.97 in assay [1] and 2.55 in assay [2].

In the case of `CNC(=O)Nc1ccc(-c2nc(N3CC4CCC(C3)O4)c3cnn(C4CCC5(CC4)OCCO5)c3n2)cc1` (0.5 µM), the values for the B-score in assay [1] and in assay [2] were -2.54 and -8.87, respectively.

As for `N#Cc1ccc(Sc2cccs2)c([N+](=O)[O-])c1` (4 µM), the B-score was -2.02 in assay [1] and -3.81 in assay [2].

As to `Cc1ccc(NC(=O)Nc2cc(C(F)(F)F)ccc2F)cc1Nc1ccc2c(c1)NC(=O)/C2=C\c1ccc[nH]1` [Trk Inhibitor III, GNF-5837] (0.5 µM), the results for the B-score in assay [1] and in assay [2] were 12 and 10.5, respectively.

On to `C[S+]([O-])c1sc(C#N)c2c1C(=O)CC(C)(C)C2` (centres undefined) (4 µM), for which the B-score was determined as 2.55 in assay [1] and 2.23 in assay [2].

With `O=S(=O)(N/N=C/c1cc(Cl)cc(Cl)c1O)c1ccc(Cl)cc1` (4 µM), the figures for the B-score in assay [1] and in assay [2] were 27.6 and 49.3, respectively.

Consider `COc1cc(CC(=O)OCC(=O)c2ccc3c(c2)OCCO3)cc(OC)c1OC` (4 µM), for which the B-score in assay [1] was -7.95; in assay [2], -10.4.

In the case of `CC(Oc1ccc(F)cc1F)C(=O)Nc1sccc1C(=O)Nc1ccc([N+](=O)[O-])cc1` (centres undefined) (4 µM), the B-score in assay [1] is -2.14; in assay [2], -2.75.

As to `N#CC1(C#N)C(c2ccc(Br)s2)C(C(=O)c2ccccc2)N2c3ccccc3C=CC21` (centres undefined) (4 µM), the results for the B-score in assay [1] and in assay [2] were -5.7 and -8.82, respectively.

In the case of `Oc1ccc(-c2ccc(-c3cc(Nc4ccc(CNC5CC5)cc4)n[nH]3)cc2)c(O)c1` [TCS 2312 dihydrochloride, TCS-2312] (0.5 µM), the B-score is -4.91 in assay [1] and -7.25 in assay [2].

On to `COC(=O)c1cnc(NC(=O)C2CCN(c3ncnc4sc(C)c(C)c34)CC2)s1` (4 µM), for which the B-score in assay [1] was -14.3; in assay [2], -13.7.

On to `COc1ccc(OC)c(C(=O)c2cc(OC)c(OC)c(OC)c2)c1` (4 µM), for which the B-score in assay [1] is -7.55; in assay [2], -7.66.

In the case of `CC[C@]1(O)C[C@@H]2CN(CCc3c([nH]c4ccccc34)[C@@](C(=O)OC)(c3cc4c(cc3OC)N(C)[C@H]3[C@@](O)(C(=O)OC)[C@H](OC(C)=O)[C@]5(CC)C=CCN6CC[C@]43[C@@H]65)C2)C1` [Vinblastine sulfate] (4 µM), the B-score is -2.94 in assay [1] and -5.61 in assay [2].

Consider `CNC(=S)N/N=C/c1cc(Br)ccc1O` (4 µM), for which the B-score in assay [1] came out at 3.97; in assay [2], 5.12.

For `Cc1nc(C(N)=NOC(=O)c2c(-c3ccccc3Cl)noc2C)cs1` (4 µM), the B-score in assay [1] was determined as 4.47; in assay [2], 1.63.

Consider `COc1cccn(CC(=O)NNS(=O)(=O)c2ccccc2)c1=O` (4 µM), for which the B-score in assay [1] turned out to be 1.01; in assay [2], 6.31.

With `CNC(=O)c1cccc(-c2ccc3c(N4CCOC[C@@H]4C)nc(N4CCOC[C@@H]4C)nc3n2)c1` (0.5 µM), the B-score in assay [1] was -6.88; in assay [2], -6.19.

In the case of `CN(C)c1ccc(-n2nnnc2SCc2c(F)cccc2Cl)cc1` (4 µM), the results for the B-score in assay [1] and in assay [2] were -7.76 and -11.8, respectively.

As for `COc1ccc(Cl)cc1NC(=O)Nc1ccc(Br)c(C(F)(F)F)c1` (4 µM), the B-score was 5.14 in assay [1] and 1.7 in assay [2].

On to `CSC1=N/C(=C\c2ccc([N+](=O)[O-])s2)C(=O)N1CCOc1ccc(Cl)cc1` (4 µM), for which the B-score in assay [1] worked out at 10.8; in assay [2], 6.74.

With `CCOC(=O)c1cnn2c1nc(N1CCCC1)c1ccccc12` (4 µM), the B-score stood at 4.52 in assay [1] and 0.538 in assay [2].

Turning to `CCN1C(=CC(=S)Nc2ccccc2)Sc2ccccc21` (4 µM), the B-score in assay [1] is 2.29; in assay [2], 4.55.

Turning to `COC(OC)c1nc(SCC(=O)Nc2ccc(C(F)(F)F)cc2)ncc1C(=O)O` (4 µM), the figures for the B-score in assay [1] and in assay [2] were 3.3 and 2.82, respectively.

As for `CN(Cc1cnc2nc(N)nc(N)c2n1)c1ccc(C(=O)N[C@@H](CCC(=O)O)C(=O)O)cc1.O` (4 µM), the B-score in assay [1] is -5.71; in assay [2] it was -12.8.

`COC(=O)Nc1nc2cc(C(=O)c3cccs3)ccc2[nH]1` [Nocodazole] (4 µM): the values for the B-score in assay [1] and in assay [2] were -8.77 and -15.7, respectively.

Take `CCOC(=O)c1sc(SC)c2c1CCC(=CN(C)C)C2=O` (4 µM): the B-score in assay [1] came out at 6.3; in assay [2] it was 2.92.

These data come from the supplement of paper PMC11283458.
